Source: the supplement of paper PMC4466236
The full ranking holds about 33,000 sequences; the median of “E-score (dimensionless, -0.5 to 0.5)” is about -0.058, and the highest 2% start at about 0.35. The list shows a part of the results.

The sequences below were run on MvaT (assay: PBM 8-mer E-score (mean of HK and ME arrays) (E-score (dimensionless, -0.5 to 0.5)); higher = stronger relative binding preference; most listed sequences are background and not binding sites).
How it was run: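 Full-length P. aeruginosa MvaT carrying an N-terminal glutathione S-transferase tag was tested by protein binding microarray following a previously described protocol. Two universal double-stranded 60-mer arrays, ME and HK, were used, each with a constant 25-mer primer region and a variable 35-mer region covering all 8-mers. The rank-based E-score is the mean of the two arrays, parsed with a custom script. Its range runs from -0.5 to 0.5 for each 8-mer.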
CGAAATTA was tested, and the “PBM 8-mer E-score” value was 0.24. In the case of CGAATACC, the “PBM 8-mer E-score” value is reported as -0.0335. In the case of AGATCCAA, the “PBM 8-mer E-score” value is reported as 0.00475. In the case of TCGCGCGA, the “PBM 8-mer E-score” value is reported as 0.0286. In the case of AGAACTAG, the “PBM 8-mer E-score” value is reported as 0.0971. With ATTGATCC the “PBM 8-mer E-score” value was 0.0745. With TAACGTTA the “PBM 8-mer E-score” value was 0.333. In the case of CGCAGAAG, the “PBM 8-mer E-score” value is reported as -0.195. In the case of ATACCGGA, the “PBM 8-mer E-score” value is reported as -0.141. In the case of AGGCCGGG, the “PBM 8-mer E-score” value is reported as -0.346. AGATCTCC was tested, and the “PBM 8-mer E-score” value was -0.204. In the case of GGGTCGAA, the “PBM 8-mer E-score” value is reported as -0.0508. CAAGTGCG was tested, and the “PBM 8-mer E-score” value was -0.061. In the case of ATGTGACA, the “PBM 8-mer E-score” value is reported as 0.179. With CGTAGGTA the “PBM 8-mer E-score” value was -0.029. In the case of CCCAATCA, the “PBM 8-mer E-score” value is reported as -0.106. GCCTTGTA was tested, and the “PBM 8-mer E-score” value was -0.0498. CTATCGCA was tested, and the “PBM 8-mer E-score” value was -0.108. With CTGTGCTA the “PBM 8-mer E-score” value was -0.0139. In the case of AAACTCAC, the “PBM 8-mer E-score” value is reported as -0.00989. ACGACTGC was tested, and the “PBM 8-mer E-score” value was -0.218. For GAGCCACA, the “PBM 8-mer E-score” value was -0.197. In the case of ATAGATTG, the “PBM 8-mer E-score” value is reported as 0.152. With CGCCAAAG the “PBM 8-mer E-score” value was -0.0963. In the case of AAAACTTT, the “PBM 8-mer E-score” value is reported as 0.354. With AACGGCCA the “PBM 8-mer E-score” value was -0.132. For CACTGGTC, the “PBM 8-mer E-score” value was -0.315. With AAATGACC the “PBM 8-mer E-score” value was 0.0232. In the case of GCAACGCC, the “PBM 8-mer E-score” value is reported as -0.119. For ATATTAAG, the “PBM 8-mer E-score” value was 0.446. With AGTTGCTC the “PBM 8-mer E-score” value was -0.0921. CGGTTACC was tested, and the “PBM 8-mer E-score” value was -0.182. For GCGTCAAA, the “PBM 8-mer E-score” value was 0.1. ACACGCGT was tested, and the “PBM 8-mer E-score” value was -0.0867. For AGTAGCGG, the “PBM 8-mer E-score” value was 0.0183. In the case of GAATGCCA, the “PBM 8-mer E-score” value is reported as -0.0324. In the case of CGAAACGC, the “PBM 8-mer E-score” value is reported as -0.141. GGCGGGGA was tested, and the “PBM 8-mer E-score” value was -0.214. With CCGATCTA the “PBM 8-mer E-score” value was -0.0527. For ACAGTGGT, the “PBM 8-mer E-score” value was -0.197. GGCCTAAA was tested, and the “PBM 8-mer E-score” value was -0.0526. With ACAGACAG the “PBM 8-mer E-score” value was -0.0282. In the case of ACCAGTGG, the “PBM 8-mer E-score” value is reported as -0.28. For ACTGTCGA, the “PBM 8-mer E-score” value was -0.00521. With GACGTCGA the “PBM 8-mer E-score” value was -0.171. With ATCCTTTC the “PBM 8-mer E-score” value was -0.0118. ATCCGAGA was tested, and the “PBM 8-mer E-score” value was -0.129. CACGACCA was tested, and the “PBM 8-mer E-score” value was -0.0689. For CTACCTGC, the “PBM 8-mer E-score” value was -0.133. AGGTATAG was tested, and the “PBM 8-mer E-score” value was -0.0523. GCGTAGGA was tested, and the “PBM 8-mer E-score” value was -0.114. For CTGAACAC, the “PBM 8-mer E-score” value was -0.0824. AGCCATCC was tested, and the “PBM 8-mer E-score” value was -0.271. AGGCCGTC was tested, and the “PBM 8-mer E-score” value was -0.175. With CGCCCAGC the “PBM 8-mer E-score” value was -0.0815. With GAGTACCC the “PBM 8-mer E-score” value was -0.09. In the case of AGCTGGGA, the “PBM 8-mer E-score” value is reported as -0.127. For CACAGCCA, the “PBM 8-mer E-score” value was -0.0351. In the case of GTTGCGCA, the “PBM 8-mer E-score” value is reported as 0.0265. In the case of GTGTCCGA, the “PBM 8-mer E-score” value is reported as -0.0935. In the case of AAGACCTT, the “PBM 8-mer E-score” value is reported as -0.0303. With ATTCCGTC the “PBM 8-mer E-score” value was 0.0057. In the case of TGTCCAAA, the “PBM 8-mer E-score” value is reported as 0.146. For AAGCCTAC, the “PBM 8-mer E-score” value was -0.0147. For AGGAGGAT, the “PBM 8-mer E-score” value was -0.0948. In the case of CACCGGGC, the “PBM 8-mer E-score” value is reported as -0.18. In the case of GGGGGTGA, the “PBM 8-mer E-score” value is reported as -0.241. For AACCCACT, the “PBM 8-mer E-score” value was 0.0661. In the case of CTTGGAAA, the “PBM 8-mer E-score” value is reported as 0.0486. In the case of CCCGCTTC, the “PBM 8-mer E-score” value is reported as -0.157. For GTTAAAAA, the “PBM 8-mer E-score” value was 0.239. With ATCAATTC the “PBM 8-mer E-score” value was 0.118. For ACCAGCCT, the “PBM 8-mer E-score” value was -0.109. In the case of GCTTGTCC, the “PBM 8-mer E-score” value is reported as -0.263. For CCAGCGAG, the “PBM 8-mer E-score” value was -0.0692. With AGCCGGAG the “PBM 8-mer E-score” value was -0.323. AGGATCGA was tested, and the “PBM 8-mer E-score” value was -0.146. ACAGGCAT was tested, and the “PBM 8-mer E-score” value was -0.0589. With GTATACAC the “PBM 8-mer E-score” value was 0.209. In the case of CCTGAACC, the “PBM 8-mer E-score” value is reported as -0.262. In the case of GAAGGCAC, the “PBM 8-mer E-score” value is reported as -0.218. In the case of GGCAGCCC, the “PBM 8-mer E-score” value is reported as -0.221. With CCATGTCA the “PBM 8-mer E-score” value was -0.0804. With CCTTGGAC the “PBM 8-mer E-score” value was -0.191. In the case of CTTAGTGC, the “PBM 8-mer E-score” value is reported as 0.0457. With GGGGACAC the “PBM 8-mer E-score” value was -0.236. AGCAAGCG was tested, and the “PBM 8-mer E-score” value was -0.17. ACTGCGCA was tested, and the “PBM 8-mer E-score” value was -0.143. With AATTACTG the “PBM 8-mer E-score” value was 0.21. With ACCCCATC the “PBM 8-mer E-score” value was -0.245. With CATGGACC the “PBM 8-mer E-score” value was -0.143. With ACAGTTGA the “PBM 8-mer E-score” value was 0.12. For AGGTAAAG, the “PBM 8-mer E-score” value was 0.0227. For ATCAGTAG, the “PBM 8-mer E-score” value was -0.0219. For ATCCGACC, the “PBM 8-mer E-score” value was -0.349. In the case of AGTTTATA, the “PBM 8-mer E-score” value is reported as 0.424. In the case of CCCATAAC, the “PBM 8-mer E-score” value is reported as 0.15. In the case of AGCTTCCG, the “PBM 8-mer E-score” value is reported as -0.0952. For CCATGTCG, the “PBM 8-mer E-score” value was -0.0897. CGAATTAA was tested, and the “PBM 8-mer E-score” value was 0.308. AAACGTGC was tested, and the “PBM 8-mer E-score” value was -0.00068. In the case of ATGGCGTC, the “PBM 8-mer E-score” value is reported as -0.163. ACTTGCGA was tested, and the “PBM 8-mer E-score” value was 0.0311. AAGTATAT was tested, and the “PBM 8-mer E-score” value was 0.399. For ACAAGCCC, the “PBM 8-mer E-score” value was -0.183. With CCGGACCA the “PBM 8-mer E-score” value was -0.184. In the case of AGCACTGA, the “PBM 8-mer E-score” value is reported as 0.0144. With ACGTTATC the “PBM 8-mer E-score” value was 0.0431. GCCACCGA was tested, and the “PBM 8-mer E-score” value was -0.115.
